The source of these data is the supplement of paper PMC12217912.

The chains are these.
B1: TEV protease; numbered along this chain (parent)
chain: MGESLFKGPRDYNPISSSICHLTNESDGHTTSLYGIGFGPFIITNKHLFRRNNGTLVVQSLHGVFKVKDTTTLQQHLVDGRDMIIIRMPKDFPPFPQKLKFREPQREERICLVTTNFQTKSMSSMVSDTSCTFPSGDGIFWKHWIQTKDGQCGSPLVSTRDGFIVGIHSASNFTNTNNYFTSVPKNFMELLTNQEAQQWVSGWRLNADSVLWGGHKVFMVKPEEPFQPVKEATQL

The variants in this assay derive from B1. Kind of assay: raw area under fraction-flipped curve 0-4 h after induction (AUC4h, not background-subtracted), DNA-recorder readout of cleavage of the substrate (dimensionless); higher = more cleavage of the substrate by the protease variant. The following applies: temperature: 34 °C; time window: 0-4 h after rhamnose induction. As for the experimental part: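 In vivo DNA recorder in E. coli TOP10(DE3) ΔrhaA at 34 °C. Each TEVp single-site mutant (parent TEVp 0) is paired with a single-site variant of the 7-mer TEVs (canonical ENLYFQ|S). The substrate sits between flexible linkers in a Bxb1-sfGFP-TEVs-SsrA fusion, so cleavage stabilises Bxb1 and speeds flipping of a recombination array, read by NGS. The value is the raw area under the fraction-flipped curve over 0-4 h after rhamnose induction (AUC4h), with ≥20 reads per time point. It is not background-subtracted; inactive controls average about 0.047.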

The list shows a part of the results. Sequences were assembled here from the parent chain. Inactive controls read about 0.05.
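Further: Bxb1 expression induced with 0.2% (w/v) L-rhamnose at OD600 near 0.5, cultures sampled hourly, flipped fraction per protease–substrate barcode pair counted by paired-end Illumina sequencing.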

Take MGESLFKGPRDYNPISSSICHLTNESDGHTTSLYGIGFGPFIITNKHLFRRNNGTLVVQSLHGVFKVKDTTTLQQHLVDGRDMIIIRMPKDFPPFPQKLKFREPQREERICLVTTNRQTKSMSSMVSDTSCTFPSGDGIFWKHWIQTKDGQCGSPLVSTRDGFIVGIHSASNFTNTNNYFTSVPKNFMELLTNQEAQQWVSGWRLNADSVLWGGHKVFMVKPEEPFQPVKEATQL [F117R]: the “area with substrate ENLDFQS” value amounted to 0.0562, the “area with substrate ENLFFQS” value was determined as 0.0861, the “area with substrate ENLHFQS” value was determined as 0.081 and the “area with substrate ENLKFQS” value worked out at 0.0933. Further, the “area with substrate ENLLFQS” value worked out at 0.0619, the “area with substrate ENLNFQS” value came out at 0.0621, the “area with substrate ENLPFQS” value stood at 0.051 and the “area with substrate ENLRFQS” value is 0.0978. Moreover, the “area with substrate ENLSFQS” value was found to be 0.053.
As for MGESLFKGPRDYNPISSSICHLTNESDGHTTSLYGIGFGPFIITNKHLFRRNNGTLVVQSLHGVFKVKDTTTLQQHLVDGRDMIIIRMPKDFPPFPQKLKFREPQREERICLVTTNFQTKSMSSSVSDTSCTFPSGDGIFWKHWIQTKDGQCGSPLVSTRDGFIVGIHSASNFTNTNNYFTSVPKNFMELLTNQEAQQWVSGWRLNADSVLWGGHKVFMVKPEEPFQPVKEATQL [M125S], the “area with substrate ENLDFQS” value was found to be 0.0464, the “area with substrate ENLEFQS” value turned out to be 0.0674, the “area with substrate ENLFFQS” value was 0.0832 and the “area with substrate ENLGFQS” value was 0.0683. Also, the “area with substrate ENLHFQS” value came to 0.0807, the “area with substrate ENLLFQS” value worked out at 0.0737, the “area with substrate ENLNFQS” value worked out at 0.0704 and the “area with substrate ENLPFQS” value stood at 0.0543. Besides, the “area with substrate ENLQFQS” value was determined as 0.0762.
For the variant MGESLFKGPRDYNPISSSICHLTNESDGHTTSLYGIGFGPFIITNKHLFRRNNGTLVVQSLHGVFKVKDTTTLQQHLVDGRDMIIIRMPKDFPPFPQKLKFREPQREERICLVTTNFQTKSMSSRVSDTSCTFPSGDGIFWKHWIQTKDGQCGSPLVSTRDGFIVGIHSASNFTNTNNYFTSVPKNFMELLTNQEAQQWVSGWRLNADSVLWGGHKVFMVKPEEPFQPVKEATQL [M125R], the “area with substrate ENLDFQS” value was 0.0576, the “area with substrate ENLEFQS” value stood at 0.0571, the “area with substrate ENLFFQS” value was found to be 0.0988 and the “area with substrate ENLGFQS” value amounted to 0.0663. For the same variant, the “area with substrate ENLHFQS” value is 0.0752, the “area with substrate ENLKFQS” value is 0.0825, the “area with substrate ENLMFQS” value was 0.0793 and the “area with substrate ENLNFQS” value came to 0.0637. In addition, the “area with substrate ENLPFQS” value is 0.0686, the “area with substrate ENLQFQS” value came out at 0.0623, the “area with substrate ENLRFQS” value turned out to be 0.0467 and the “area with substrate ENLSFQS” value stood at 0.0467.
Turning to MGESLFKGPRDYNPISSSICHLTNESDGHTTSLYGIGFGPFIITNKHLFRRNNGTLVVQSLHGVFKVKDTTTLQQHLVDGRDMFIIRMPKDFPPFPQKLKFREPQREERICLVTTNFQTKSMSSMVSDTSCTFPSGDGIFWKHWIQTKDGQCGSPLVSTRDGFIVGIHSASNFTNTNNYFTSVPKNFMELLTNQEAQQWVSGWRLNADSVLWGGHKVFMVKPEEPFQPVKEATQL [I84F], the “area with substrate ENLDFQS” value amounted to 0.0592, the “area with substrate ENLFFQS” value amounted to 0.0563, the “area with substrate ENLHFQS” value stood at 0.079 and the “area with substrate ENLIFQS” value is 0.0535. Besides, the “area with substrate ENLKFQS” value is 0.0617, the “area with substrate ENLLFQS” value was determined as 0.0595, the “area with substrate ENLPFQS” value was 0.0719 and the “area with substrate ENLSFQS” value came to 0.0559.
Take MGESLFKGPRDYNPISSSICHLTNESDGHTTSLYGIGFGPFIITNKHLFRRNNGTLVVQSLHGVFKVKDTTTLQQHLVDGRDMIIIRMPKDFPPFPQKLKFREPQREERICLVTTNFQTKSASSMVSDTSCTFPSGDGIFWKHWIQTKDGQCGSPLVSTRDGFIVGIHSASNFTNTNNYFTSVPKNFMELLTNQEAQQWVSGWRLNADSVLWGGHKVFMVKPEEPFQPVKEATQL [M122A]: the “area with substrate ENLDFQS” value turned out to be 0.0682, the “area with substrate ENLFFQS” value worked out at 0.0689, the “area with substrate ENLHFQS” value worked out at 0.0682 and the “area with substrate ENLKFQS” value was 0.0773. Further, the “area with substrate ENLLFQS” value came to 0.086, the “area with substrate ENLNFQS” value was 0.0667, the “area with substrate ENLQFQS” value was 0.067 and the “area with substrate ENLVFQS” value is 0.0877. The “area with substrate ENLWFQS” value was 0.0974.
As for MGESLFKGPRDYNPISSSICHLTNESDGHTTSLYGIGFGPFIITNKHLFRRNNGTLVFQSLHGVFKVKDTTTLQQHLVDGRDMIIIRMPKDFPPFPQKLKFREPQREERICLVTTNFQTKSMSSMVSDTSCTFPSGDGIFWKHWIQTKDGQCGSPLVSTRDGFIVGIHSASNFTNTNNYFTSVPKNFMELLTNQEAQQWVSGWRLNADSVLWGGHKVFMVKPEEPFQPVKEATQL [V58F], the “area with substrate ENLDFQS” value is 0.0539, the “area with substrate ENLEFQS” value came to 0.0469, the “area with substrate ENLGFQS” value came to 0.0407 and the “area with substrate ENLKFQS” value came to 0.0788. Moreover, the “area with substrate ENLNFQS” value was 0.0552, the “area with substrate ENLQFQS” value was 0.0745 and the “area with substrate ENLSFQS” value came out at 0.0803.
Regarding MGESLFKGPRDYNPISSSICHLTNESDGHTTSLYGIGFGPFIITNKHLFRRNNGTLVVQSLHGVFKVKDTTTLQQHLVDGRDMIIIRMPKDFPPFPQKLKFREPQREERICLVTFNFQTKSMSSMVSDTSCTFPSGDGIFWKHWIQTKDGQCGSPLVSTRDGFIVGIHSASNFTNTNNYFTSVPKNFMELLTNQEAQQWVSGWRLNADSVLWGGHKVFMVKPEEPFQPVKEATQL [T115F], the “area with substrate ENLDFQS” value is 0.0729, the “area with substrate ENLFFQS” value came out at 0.0985, the “area with substrate ENLGFQS” value is 0.0426 and the “area with substrate ENLHFQS” value was determined as 0.0635. Also, the “area with substrate ENLKFQS” value was 0.0646, the “area with substrate ENLLFQS” value came out at 0.0657, the “area with substrate ENLPFQS” value was 0.046 and the “area with substrate ENLQFQS” value came out at 0.0628. The “area with substrate ENLSFQS” value turned out to be 0.0544, the “area with substrate ENLVFQS” value was 0.0852 and the “area with substrate ENLWFQS” value was found to be 0.0553.
For the variant MGESLFKGPRDYNPISSSICHLTNESDGHTTSLYGIGFGPFIITNKHLFRRNNGTLVVQSLHGVFKVKDTTTLQQHLVDGRDMIIIRMPKDFPPFPQKLKFREPQREERICLVTTNFQTKSMSIMVSDTSCTFPSGDGIFWKHWIQTKDGQCGSPLVSTRDGFIVGIHSASNFTNTNNYFTSVPKNFMELLTNQEAQQWVSGWRLNADSVLWGGHKVFMVKPEEPFQPVKEATQL [S124I], the “area with substrate ENLDFQS” value is 0.0596, the “area with substrate ENLEFQS” value worked out at 0.0576, the “area with substrate ENLFFQS” value was 0.101 and the “area with substrate ENLIFQS” value was 0.0883. Also, the “area with substrate ENLKFQS” value was found to be 0.0692, the “area with substrate ENLNFQS” value was 0.0611, the “area with substrate ENLPFQS” value was found to be 0.0562 and the “area with substrate ENLQFQS” value is 0.0794. For the same variant, the “area with substrate ENLRFQS” value came out at 0.0737, the “area with substrate ENLSFQS” value stood at 0.0613, the “area with substrate ENLVFQS” value came to 0.0558 and the “area with substrate ENLWFQS” value turned out to be 0.0171.
For MGESLFKGPRDYNPISSSICHLTNESDGHTTSLYGIGFGPFIITNKHLFRRNNGTLVVFSLHGVFKVKDTTTLQQHLVDGRDMIIIRMPKDFPPFPQKLKFREPQREERICLVTTNFQTKSMSSMVSDTSCTFPSGDGIFWKHWIQTKDGQCGSPLVSTRDGFIVGIHSASNFTNTNNYFTSVPKNFMELLTNQEAQQWVSGWRLNADSVLWGGHKVFMVKPEEPFQPVKEATQL [Q59F], the “area with substrate ENLDFQS” value amounted to 0.0597, the “area with substrate ENLFFQS” value was found to be 0.0826, the “area with substrate ENLHFQS” value was 0.0609 and the “area with substrate ENLIFQS” value was 0.0781. For the same variant, the “area with substrate ENLKFQS” value is 0.0727, the “area with substrate ENLNFQS” value was found to be 0.0914 and the “area with substrate ENLWFQS” value stood at 0.0492.
Consider MGESLFKGPRDYNPISSSICHLTNESDGHTTSLYGIGFGPFIITNKHLFRRNNGTLVVQSLHGVFKVKNTTTLQQHLVDGRDMIIIRMPKDFPPFPQKLKFREPQREERICLVTTNFQTKSMSSMVSDTSCTFPSGDGIFWKHWIQTKDGQCGSPLVSTRDGFIVGIHSASNFTNTNNYFTSVPKNFMELLTNQEAQQWVSGWRLNADSVLWGGHKVFMVKPEEPFQPVKEATQL [D69N], for which the “area with substrate ENLDFQS” value turned out to be 0.0643, the “area with substrate ENLEFQS” value came out at 0.0901, the “area with substrate ENLFFQS” value came to 0.0885 and the “area with substrate ENLKFQS” value amounted to 0.116. Moreover, the “area with substrate ENLPFQS” value was 0.0717, the “area with substrate ENLTFQS” value is 0.0641, the “area with substrate ENLVFQS” value came out at 0.146 and the “area with substrate ENLWFQS” value is 0.0514.
